Data from the supplement of paper PMC4466236.
In all, about 33,000 sequences were measured (“E-score (dimensionless, -0.5 to 0.5)”: median about -0.058, highest 2% from about 0.35 on). The list shows a part of the results.

Tested on: MvaT
Experiment: PBM 8-mer E-score (mean of HK and ME arrays) (E-score (dimensionless, -0.5 to 0.5)); higher = stronger relative binding preference; most listed sequences are background and not binding sites
In short: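 Full-length P. aeruginosa MvaT, with glutathione S-transferase fused to its N-terminus (cloned into pTH6838 by isothermal assembly), was tested by protein binding microarray using a previously described protocol. Two universal double-stranded 60-mer arrays (ME and HK) were used, each with a constant 25-mer primer region and a variable 35-mer region covering all 8-mers. The rank-based 8-mer E-score (-0.5 to 0.5) is the mean of the two arrays, parsed with a custom Python script.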

| Sequence | PBM 8-mer E-score |
| --- | --- |
| AAAGACGC | -0.167 |
| ACGCTTGC | -0.172 |
| AGTGCTAG | -0.22 |
| TATCTCCA | 0.167 |
| CTACTTGC | 0.173 |
| AGAGGACG | -0.268 |
| CCTGCCAA | -0.136 |
| CTATACAC | 0.132 |
| AGGTTTTA | 0.145 |
| CAATATGC | 0.0377 |
| ATCGCGTC | -0.106 |
| ACTTGACT | 0.0422 |
| CGCTCCTA | -0.0562 |
| CGCCGCAA | -0.0873 |
| CGATTGCC | -0.168 |
| AGTGCACG | -0.2 |
| AAGTGTAT | 0.209 |
| CTCGATAC | -0.0806 |
| AGCAAAAG | -0.129 |
| CCTAGAAA | -0.00555 |
| TACTTAAA | 0.302 |
| CGCAGGAA | -0.125 |
| CCTATCAA | -0.00595 |
| CAGCGGCG | -0.314 |
| CAGGATGA | -0.161 |

| Sequence | PBM 8-mer E-score |
| --- | --- |
| AACGCTGA | 0.0104 |
| TGTAAAAA | 0.208 |
| TAGCAAAA | 0.141 |
| GTGACCAC | -0.2 |
| CCTAGACC | -0.368 |
| CTACCATA | 0.113 |
| AACCAGGA | -0.0702 |
| CCTTGGTC | -0.147 |
| CTATAGAG | -0.125 |
| CGCCACGC | -0.232 |
| AAAAGCTC | -0.0929 |
| CGTGTAAA | 0.0939 |
| CCCGGTAA | 0.0671 |
| ACTACTAA | 0.258 |
| AATCTTTA | 0.264 |
| TCCCTGAA | -0.14 |
| CTAGTCTA | 0.0791 |
| AACTCTAT | 0.128 |
| AAATTCGT | 0.258 |
| ACCAGTTG | 0.0747 |
| AATACGGT | 0.137 |
| GAACTCTC | -0.143 |
| AGAAGGCG | -0.261 |
| CTGGATCC | -0.197 |
| GGGTGGGA | -0.0483 |

| Sequence | PBM 8-mer E-score |
| --- | --- |
| GATCCTTA | -0.113 |
| ATTACTTG | 0.266 |
| ATGCGCTG | 0.0436 |
| ACACGCAT | 0.17 |
| CACCAAAC | 0.0469 |
| CCGCCGTA | -0.188 |
| CTGTGACC | -0.092 |
| GCGCCTAC | -0.236 |
| CCCGTGGA | -0.268 |
| GAGGAACA | -0.143 |
| CCCCCCAA | -0.228 |
| ATGAATAA | 0.368 |
| GACGGACC | -0.291 |
| AGGGAACT | -0.0689 |
| GCTATGGA | -0.0686 |
| ATCTGGGA | -0.123 |
| CAAGGGCG | -0.258 |
| CTCCTTCC | -0.435 |
| ACGCAGAT | 0.116 |
| CGCGCATC | -0.204 |
| GAATCAGA | -0.0423 |
| AGATAGAC | -0.162 |
| ATATATGC | 0.424 |
| ACGCTTGG | -0.247 |
| CTGCTTGA | -0.174 |

| Sequence | PBM 8-mer E-score |
| --- | --- |
| CAAGATTC | -0.0781 |
| ACAGTATC | 0.0114 |
| AGCTAACT | -0.0152 |
| CTACGATA | 0.0523 |
| GTGGCGCA | -0.113 |
| TCCTGAAA | -0.102 |
| AGGTTATC | 0.0402 |
| CCGTCCAC | -0.146 |
| AGACTGTA | 0.0181 |
| ATCACGTC | -0.11 |
| AATGAAAA | 0.138 |
| AATGGTGG | -0.157 |
| ACTGTCGG | -0.0997 |
| AGATCGGG | -0.146 |
| GCGTCGGA | -0.267 |
| ATAAAAGA | 0.263 |
| GCTCTAAA | 0.0346 |
| CCTATTCC | -0.0259 |
| TAAACACA | 0.285 |
| ATGTCAAC | 0.0323 |
| AGGATCCG | -0.289 |
| ACAAAGCC | 0.0647 |
| AGGTTCGA | -0.0906 |
| AATGATTG | 0.0829 |
| CGGTTTAG | -0.0711 |

| Sequence | PBM 8-mer E-score |
| --- | --- |
| AGCAGAAT | 0.157 |
| GGGTGACA | -0.126 |
| AGTCGGAA | 0.0122 |
| TCCAGCAA | -0.0123 |
| CTCCTGTC | -0.282 |
| ATAAGGAG | 0.137 |
| GCCGTTAC | 0.00658 |
| CTCCATCA | -0.189 |
| GGTGGCAC | -0.179 |
| CGAAACCG | -0.166 |
| CAACTATC | 0.124 |
| GCCACAGA | -0.11 |
| AATGGGCA | -0.151 |
| CAACAAGG | -0.0563 |
| CTGTGCAC | -0.0759 |
| AAAAATGA | 0.169 |
| CAAAGGAC | -0.0682 |
| ATTTTTAA | 0.323 |
| CGATGGTA | -0.146 |
| ACGCGCCA | -0.192 |
| AGTCAAGC | -0.119 |
| GCAACACC | -0.193 |
| AATAACGG | 0.319 |
| GACGATGC | -0.228 |
| CCACCCAA | 0.000179 |

| Sequence | PBM 8-mer E-score |
| --- | --- |
| AGCTACGG | -0.24 |
| TCGCGAGA | 0.0128 |
| AGAATTTA | 0.262 |
| TCGTTTAA | 0.252 |
| AATGATGA | 0.13 |
| CTGGGATA | -0.0515 |
| CCAGGGGA | -0.236 |
| CTTACCGA | -0.0946 |
| AAGCATGA | -0.118 |
| TCGCGACA | -0.14 |
| TCGCTCAA | -0.037 |
| TCGCAAAA | 0.0907 |
| GGCGATAC | -0.146 |
| GATACGCA | -0.211 |
| GGCAAGAA | -0.156 |
| GGGGCACA | -0.0648 |
| GAGCAGGA | -0.212 |
| GTTCGCTA | -0.0375 |
| ATTCATGC | 0.0176 |
| ACCCTGAA | -0.163 |
| AGCAACGA | -0.24 |
| GATCAACC | -0.124 |
| TAAGAACA | 0.123 |
| ACACAGTG | -0.0714 |
| GTTCTTTA | 0.215 |

| Sequence | PBM 8-mer E-score |
| --- | --- |
| AAGGGTGG | -0.125 |
| ATTGAGGA | 0.0686 |
| TCTAATAA | 0.332 |
| ACGTATGC | -0.154 |
| AGCCACCA | -0.0502 |
| ATATATAG | 0.468 |
| AGGCTTCA | -0.201 |
| ATGTTCCA | 0.0835 |
| CCTAGAAG | -0.263 |
| CTGAATTC | 0.0246 |
| ACTCTGGA | -0.0765 |
| GCTACCAA | -0.0936 |
| GCCGCGCC | -0.218 |
| AGATAGTG | 0.0848 |
| ACTGGAGG | -0.186 |
| GCCTCGAA | -0.0962 |
| TAGGCCTA | -0.152 |
| GCGTTGCA | -0.143 |
| AAAGCCTG | -0.0913 |
| ATAGGGAC | -0.0932 |
| CTAAACCA | 0.162 |
| ATATCATC | 0.216 |
